# The full ranking holds about 81,000 sequences; the median of “one-hybrid fitness for binding parS DNA” is about -0.17, and the highest 2% start at about 0.51. The list shows a part of the results.
# B1: Caulobacter ParB omega fusion; a variant is named by its letters at X, in order, B8GW30 (parent)
# chain: MESVVVGEPGMSEGRRGLGRGLSALLGEVDAAPAQAPGEQLGGSREAPIEILQRNPDQPRRTFREEDLEDLSNSIREKGVLQPILVRPSPDTAGEYQIVAGERAWRAAQRAGLKTVPIMVRELDDLAVLEIGIIENVQRADLNVLEEALSYKVLMEKFERTQENIAQTIGKSXSHVANXMRLLXLPDEVQSYLVSGELTAXHARAIAAAADPVALAKQIIEGGLSVRETEALARKAPNLSAGKSKGGRPPRVKDTDTQALESDLSSVLGLDVSIDHRGSTGTLTITYATLEQLDDLCNRLTRGI
# Variants of: B1
# Assay: one-hybrid fitness for binding parS DNA (scaled: cognate 1, non-cognate 0); higher = stronger binding
# Conditions: with parS DNA site
# Method in brief: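 On M9-minus-histidine containing 0.1 mM IPTG and 5 mM 3-AT, E. coli USO cells with a HIS3 reporter, site 19 bp from the promoter, grew 48 hours at 37°C to select Caulobacter ParB libraries randomised at four specificity codons. Plasmids from before and after were Illumina-sequenced, with three replicate libraries pooled and variants under 10 reads left out. Fitness is the log change in variant-to-wild-type read ratio, rescaled against cognate and non-cognate.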
row,Variant,one-hybrid fitness for binding parS DNA
1,ADCC,≤ 0.2
2,RMFA,0.61
3,NNMC,≤ 0.2
4,VWDV,≤ 0.2
5,RVKM,0.393
6,LIRS,≤ 0.2
7,SKCG,≤ 0.2
8,VACG,≤ 0.2
9,LYFT,≤ 0.2
10,VHHE,≤ 0.2
11,TKVQ,≤ 0.2
12,YRFA,≤ 0.2
13,FLPK,≤ 0.2
14,AWMV,≤ 0.2
15,HCAR,≤ 0.2
16,TEPW,≤ 0.2
17,RDQL,≤ 0.2
18,HGAC,≤ 0.2
19,WSWS,≤ 0.2
20,VQPV,≤ 0.2
21,HGSC,≤ 0.2
22,TSYE,≤ 0.2
23,ECTG,≤ 0.2
24,EPRC,≤ 0.2

row,Variant,one-hybrid fitness for binding parS DNA
1,RVLV,≤ 0.2
2,IYTR,≤ 0.2
3,EETR,≤ 0.2
4,ASEC,≤ 0.2
5,YTGK,≤ 0.2
6,SVDC,≤ 0.2
7,GTGA,≤ 0.2
8,RKPY,≤ 0.2
9,PRGM,≤ 0.2
10,LNSL,≤ 0.2
11,NTMP,≤ 0.2
12,GTWG,≤ 0.2
13,SIAV,≤ 0.2
14,SGWS,≤ 0.2
15,AYTH,≤ 0.2
16,AVSW,≤ 0.2
17,PVAL,≤ 0.2
18,MDGR,≤ 0.2
19,TLCT,≤ 0.2
20,KSAT,≤ 0.2
21,NQGG,≤ 0.2
22,HGMV,≤ 0.2
23,LRHW,≤ 0.2
24,NAAR,≤ 0.2

row,Variant,one-hybrid fitness for binding parS DNA
1,EDWR,≤ 0.2
2,PGVY,≤ 0.2
3,ERPE,≤ 0.2
4,LLFL,≤ 0.2
5,NKCS,≤ 0.2
6,NDKT,≤ 0.2
7,PRGD,≤ 0.2
8,VMNG,≤ 0.2
9,NHKR,≤ 0.2
10,RQHY,0.461
11,HWFT,≤ 0.2
12,FRCC,≤ 0.2
13,LPCR,≤ 0.2
14,LLLM,≤ 0.2
15,SVEA,≤ 0.2
16,RLYD,≤ 0.2
17,YNGC,≤ 0.2
18,VIGY,≤ 0.2
19,TKKY,≤ 0.2
20,NTNG,≤ 0.2
21,SEAG,≤ 0.2
22,TNLA,≤ 0.2
23,KMVQ,≤ 0.2
24,TAHI,≤ 0.2

row,Variant,one-hybrid fitness for binding parS DNA
1,QPEG,≤ 0.2
2,AKYM,≤ 0.2
3,PSDN,≤ 0.2
4,SWNR,≤ 0.2
5,KNGV,≤ 0.2
6,TVTE,≤ 0.2
7,RVDV,≤ 0.2
8,ALLF,≤ 0.2
9,AVHI,≤ 0.2
10,GKRS,≤ 0.2
11,YQSC,≤ 0.2
12,IPMC,≤ 0.2
13,LSCA,≤ 0.2
14,WSMT,≤ 0.2
15,RMDE,≤ 0.2
16,WNYS,≤ 0.2
17,CTPK,≤ 0.2
18,VVHM,≤ 0.2
19,AFQF,≤ 0.2
20,DPDV,≤ 0.2
21,AAIF,≤ 0.2
22,TYKM,≤ 0.2
23,YASG,≤ 0.2
24,YAEV,≤ 0.2

row,Variant,one-hybrid fitness for binding parS DNA
1,APSW,≤ 0.2
2,HWKR,≤ 0.2
3,KQPV,≤ 0.2
4,NGAE,≤ 0.2
5,LSHK,≤ 0.2
6,LPHL,≤ 0.2
7,NAGT,≤ 0.2
8,VVMS,≤ 0.2
9,MAIS,≤ 0.2
10,HETS,≤ 0.2
11,VFKN,≤ 0.2
12,EQLT,≤ 0.2
13,LVQG,≤ 0.2
14,HSLC,≤ 0.2
15,SWAK,≤ 0.2
16,PQYA,≤ 0.2
17,RCPD,≤ 0.2
18,APFS,≤ 0.2
19,FFKG,≤ 0.2
20,MHYT,≤ 0.2
21,VNMP,≤ 0.2
22,PPDL,≤ 0.2
23,DMPS,≤ 0.2
24,SLKK,≤ 0.2

row,Variant,one-hybrid fitness for binding parS DNA
1,EFEE,≤ 0.2
2,CAFN,≤ 0.2
3,KLHF,≤ 0.2
4,VAAR,≤ 0.2
5,AAMV,≤ 0.2
6,GVIY,≤ 0.2
7,LEVV,≤ 0.2
8,NDDT,≤ 0.2
9,RDSG,≤ 0.2
10,YGRN,≤ 0.2
11,WGCG,≤ 0.2
12,LYDV,≤ 0.2
13,PHAQ,≤ 0.2
14,HVPA,≤ 0.2
15,DSCG,≤ 0.2
16,AMPF,≤ 0.2
17,SFMS,≤ 0.2
18,WEST,≤ 0.2
19,SRLK,≤ 0.2
20,GLVT,≤ 0.2
21,MAPY,≤ 0.2
22,TAYV,≤ 0.2
23,HPKK,≤ 0.2
24,LEYL,≤ 0.2

row,Variant,one-hybrid fitness for binding parS DNA
1,QQHW,≤ 0.2
2,KLWC,≤ 0.2
3,FTYR,≤ 0.2
4,HDKL,≤ 0.2
5,SKGC,≤ 0.2
6,HTSS,≤ 0.2
7,PHCR,≤ 0.2
8,WREG,≤ 0.2
9,VFYG,≤ 0.2
10,WCLT,≤ 0.2
11,WRSR,≤ 0.2
12,MECW,≤ 0.2
13,WKHC,≤ 0.2
14,TCSI,≤ 0.2
15,AEGK,≤ 0.2
16,QIQY,≤ 0.2
17,QQVS,≤ 0.2
18,RSVF,≤ 0.2
19,EERR,≤ 0.2
20,IFKR,≤ 0.2
21,CSMV,≤ 0.2
22,RTEN,0.349
23,ANDC,≤ 0.2
24,SEPG,≤ 0.2

row,Variant,one-hybrid fitness for binding parS DNA
1,SDTS,≤ 0.2
2,MEMT,≤ 0.2
3,WRNT,≤ 0.2
4,QDHG,≤ 0.2
5,CHSD,≤ 0.2
6,VWSG,≤ 0.2
7,FALC,≤ 0.2
8,WPTG,≤ 0.2
9,QAFC,≤ 0.2
10,PHTY,≤ 0.2
11,RDEG,≤ 0.2
12,TEFW,≤ 0.2
13,IGCS,≤ 0.2
14,YVQR,≤ 0.2
15,HGCL,≤ 0.2
16,WLSE,≤ 0.2
17,VRTG,≤ 0.2
18,GWGP,0.281
19,WHLV,≤ 0.2
20,LLEM,≤ 0.2
21,DFAL,≤ 0.2
22,GYPP,≤ 0.2
23,CPRI,≤ 0.2
24,VRAM,≤ 0.2

row,Variant,one-hybrid fitness for binding parS DNA
1,TAFE,≤ 0.2
2,AFDN,≤ 0.2
3,DMNT,≤ 0.2
4,TQRV,≤ 0.2
5,RGNT,0.609
6,VKKG,≤ 0.2
7,LCLF,≤ 0.2
8,DTYR,≤ 0.2
9,ASSI,≤ 0.2
10,MPRW,≤ 0.2
11,HQSS,≤ 0.2
12,IVPL,≤ 0.2
13,YLTQ,≤ 0.2
14,IGLD,≤ 0.2
15,HGSA,≤ 0.2
16,VRYR,≤ 0.2
17,EFRC,≤ 0.2
18,DHCG,≤ 0.2
19,KVSL,≤ 0.2
20,ALES,≤ 0.2
21,WWAD,0.24
22,GNSK,≤ 0.2
23,GASS,≤ 0.2
24,TSDY,≤ 0.2

row,Variant,one-hybrid fitness for binding parS DNA
1,NMVM,≤ 0.2
2,LYHR,≤ 0.2
3,IVST,≤ 0.2
4,DITE,≤ 0.2
5,PSIA,≤ 0.2
6,CKGF,≤ 0.2
7,RQWW,≤ 0.2
8,LRQM,≤ 0.2
9,GTNY,≤ 0.2
10,RNST,0.746
11,QYKY,≤ 0.2
12,NHVR,≤ 0.2
13,RNHP,≤ 0.2
14,QWCS,≤ 0.2
15,HRCG,0.246
16,QFYK,≤ 0.2
17,MSPN,≤ 0.2
18,RRPH,≤ 0.2
19,KECG,≤ 0.2
20,QCIR,≤ 0.2
21,MDPV,≤ 0.2
22,SART,≤ 0.2
23,CTDC,≤ 0.2
24,VKKI,≤ 0.2

row,Variant,one-hybrid fitness for binding parS DNA
1,TYVT,≤ 0.2
2,MNFI,≤ 0.2
3,GYLM,≤ 0.2
4,STMF,≤ 0.2
5,LWRF,≤ 0.2
6,MWES,≤ 0.2
7,CLLS,≤ 0.2
8,CKQA,≤ 0.2
9,KSSS,≤ 0.2
10,MQGS,≤ 0.2
11,KSYM,≤ 0.2
12,FIPR,≤ 0.2
13,TSGN,≤ 0.2
14,KQMC,≤ 0.2
15,CLWP,≤ 0.2
16,LCCT,≤ 0.2
17,CSVD,≤ 0.2
18,RTNH,≤ 0.2
19,QYNK,≤ 0.2
20,CSEF,≤ 0.2
21,ASHA,≤ 0.2
22,SISW,≤ 0.2
23,PHLF,≤ 0.2
24,QKYT,≤ 0.2

row,Variant,one-hybrid fitness for binding parS DNA
1,LLNL,≤ 0.2
2,KLWF,≤ 0.2
3,PVMS,≤ 0.2
4,ACGC,≤ 0.2
5,MACS,≤ 0.2
6,IKGG,≤ 0.2
7,RWWY,≤ 0.2
8,ARQM,≤ 0.2
9,SNKV,≤ 0.2
10,RQDN,0.431
11,MCSR,≤ 0.2
12,RHVQ,≤ 0.2
13,QDQK,≤ 0.2
14,KYLY,≤ 0.2
15,EDAL,≤ 0.2
16,TAYG,≤ 0.2
17,SAFI,≤ 0.2
18,AVHV,≤ 0.2
19,HKNQ,≤ 0.2
20,INEG,≤ 0.2
21,WSSS,≤ 0.2
22,WLPR,≤ 0.2
23,FKGS,≤ 0.2
24,IYTG,≤ 0.2

row,Variant,one-hybrid fitness for binding parS DNA
1,RTLG,1.02
2,KDRV,≤ 0.2
3,PYAG,≤ 0.2
4,TKKV,≤ 0.2
5,MDRH,≤ 0.2
6,KRKF,≤ 0.2
7,LTWI,≤ 0.2
8,QVNC,≤ 0.2
9,PSPG,≤ 0.2
10,DHAG,≤ 0.2
11,MNAT,≤ 0.2
12,HPRL,≤ 0.2
13,RNKQ,≤ 0.2
14,PCKL,≤ 0.2
15,QASY,≤ 0.2
16,QHAR,≤ 0.2
17,LMSD,≤ 0.2
18,PQCC,≤ 0.2
